Screen size: about 370,000 compounds; about 150 (0.041%) were called active. This list was built around the results that the source calls inconclusive (neither active nor inactive); the mix of calls is not that of the screen. Calls come from the whole dose curve; as a rule, active = well fitted inhibition curve with a large enough effect; inconclusive = small, poorly fitted or top-dose-only effect; inactive = flat fitted curve, though single readings scatter. No potency is given beside an inconclusive call; the fits are too rough.
Molecular target: Beta-lactamase (Escherichia coli (strain K12)) (UniProt P00811)
Sequence of UniProt P00811 (P00811 whole entry, looked up): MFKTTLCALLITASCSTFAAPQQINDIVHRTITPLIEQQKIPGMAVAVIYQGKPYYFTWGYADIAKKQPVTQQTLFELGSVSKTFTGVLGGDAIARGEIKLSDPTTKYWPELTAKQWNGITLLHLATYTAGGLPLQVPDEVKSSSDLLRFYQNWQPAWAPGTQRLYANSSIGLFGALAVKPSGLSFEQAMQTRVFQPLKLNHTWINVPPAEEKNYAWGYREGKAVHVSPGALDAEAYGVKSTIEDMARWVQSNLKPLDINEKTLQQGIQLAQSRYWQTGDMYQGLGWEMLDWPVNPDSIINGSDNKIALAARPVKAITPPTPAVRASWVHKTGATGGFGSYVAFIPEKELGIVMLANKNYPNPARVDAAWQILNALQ
Test: qHTS Inhibitors of AmpC Beta-Lactamase (assay with detergent); note: nearly all actives have a fitted effect of over 25% in size;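 for activity change, negative = inhibition: 0% = no-compound wells and -100% = no-enzyme wells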
Conditions: AmpC hydrolysis of nitrocefin, absorbance 480 nm, 0.01% Triton; activity change, negative = inhibition: at 114 µM (top of the series)
Procedure, shortened: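 AmpC (5.3 nM in the dispensed reagent) in 20 mM phosphate pH 7.0 with 0.01% (detergent screen) or 0.0001% Triton X-100 was preincubated with compounds for 15 min at room temperature. Nitrocefin was then added from an 800 uM solution, and hydrolysis was followed at 480 nm.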
Potency is the fitted concentration of half-maximal effect; tags give direction and shape of the fitted curve.

| Structure (SMILES) | Potency | activity change, negative = inhibition |
| --- | --- | --- |
| CCN[C@H]1C[C@H](C)S(=O)(=O)c2sc(S(N)(=O)=O)cc21 | inconclusive [inhibitor, full curve, poor fit] | – |
| Cc1ccc(NC(=S)NCC2CCCO2)cc1C (stereo not given) | – | inactive: -4.04% |
| Cc1ccc(S(=O)(=O)N2CCCCC2)cc1NS(=O)(=O)c1cccc(C(=O)O)c1 | inconclusive [inhibitor, single point] | – |
| CCOc1ccc(NC(=O)CSc2nnc(Cn3cnc([N+](=O)[O-])n3)n2C)cc1 | inconclusive [inhibitor, full curve, poor fit] | – |
| O=C1OCCC1Sc1nnc(-c2ccc(Br)cc2)o1 (stereo not given) | – | inactive: -9.98% |
| CCOc1ccccc1OCCCC(=O)Nc1cccc(S(=O)(=O)N2CCOCC2)c1 | – | inactive: -2.25% |
| CCN(CC)C(=O)c1sc2c(c1C)c(=O)n(CCc1ccccc1)c(=O)n2Cc1ccc(F)cc1Cl | – | inactive: 4.37% |
| CCCCOc1c(Br)cc(/C=C2\N=C(C)OC2=O)cc1OCC | – | inactive: 8.73% |
| CSc1ccc(/C=C(/NC(=O)c2ccco2)C(=O)N2CCCCCC2)cc1 | inconclusive [inhibitor, full curve, poor fit] | – |
| Nc1ccccc1C(=O)OCCc1ccccc1 | – | inactive: -7.6% |
| CCN(CC)CCCn1c(C)cc2c(c1=O)C(c1cc(OC)c(OC)cc1OC)C(C#N)=C(N)O2 (stereo not given) | inconclusive [inhibitor, partial curve, poor fit] | – |
| Cc1nccn1CC(=O)O | inconclusive [inhibitor, single point] | – |
| COCCCn1c(-c2ccco2)nc2ccccc2c1=O | – | inactive: -14.9% |
| Cc1nn(C)cc1CNC(=O)c1ccc(Br)o1 | inconclusive [inhibitor, full curve, poor fit] | – |
| CN(Cc1ccccc1)c1nc2c(c(=O)[nH]c(=O)n2C)n1CCSc1nc2ccccc2[nH]1 | inconclusive [inhibitor, full curve, poor fit] | – |
| COc1ccc(-n2c(C)cc(C(=O)CN3C(=O)NC4(CCCc5sccc54)C3=O)c2C)cc1 (stereo not given) | inconclusive [inhibitor, full curve] | – |
| CC(C)(C)c1ccc(C(=O)NCc2cccnc2)cc1 | inconclusive [inhibitor, full curve] | – |
| Nc1nc(C(=O)N2CCOCC2)nn1S(=O)(=O)c1ccc(Cl)cc1 | – | inactive: -13.7% |
| COc1cc(-c2cc(C(=O)Nc3nc4ccccc4s3)c3ccccc3n2)cc(OC)c1OC | – | inactive: -18.1% |
| CCN1C(=O)N[C@@H](c2ccc(Br)cc2)C(C(=O)OC)=C1C | inconclusive [inhibitor, full curve, poor fit] | – |
| COc1ccc(C2C(C#N)=C(/N=C/N3CCN(C)CC3)OC3=C2C(=O)CC(C)(C)C3)cc1 (stereo not given) | inconclusive [inhibitor, full curve, poor fit] | – |
| CCN1CCCc2cc(CN(CCN3CCOCC3)C(=S)Nc3ccc(C)cc3)ccc21 | – | inactive: 10.1% |
| Cc1ccc(N2CCN(C(=O)c3ccccc3F)CC2)c(C)c1 | inconclusive [inhibitor, full curve, poor fit] | – |

| Structure (SMILES) | Potency | activity change, negative = inhibition |
| --- | --- | --- |
| O=C(Nc1ccccc1)c1nnsc1S(=O)c1ccc(Cl)cc1 (stereo not given) | inconclusive [inhibitor, partial curve] | – |
| COc1ccccc1OCCSc1nc2ccccc2n1CC(N)=O | inconclusive [inhibitor, full curve, poor fit] | – |
| CSc1cccc(-c2nnc(NC(=O)c3cccc(N4C(=O)CCC4=O)c3)o2)c1 | inconclusive [inhibitor, full curve, poor fit] | – |
| Cn1cc(CCC(=O)N2CCCC(C(=O)c3cccc4ccccc34)C2)cn1 (stereo not given) | – | inactive: -1.27% |
| O=C(Nc1cc([N+](=O)[O-])ccc1O)c1cccc([N+](=O)[O-])c1 | inconclusive [inhibitor, full curve] | – |
| CCOc1ccc(-c2cc(C(=O)NCc3ccccc3Cl)c3ccccc3n2)cc1 | – | inactive: 5.33% |
| CCCCn1c(CCNC(=O)CC)nc2ccccc21 | inconclusive [inhibitor, partial curve] | – |
| O=C(O)c1cc(N/N=C/c2ccc(-c3ccc(F)cc3)o2)ccc1Cl | inconclusive [inhibitor, full curve, poor fit] | – |
| CCc1ccc(NC(=O)NNC(=O)CCc2ccccc2)cc1 | inconclusive [inhibitor, partial curve, poor fit] | – |
| COc1ccc(-c2nc(CS(=O)(=O)CC(=O)Nc3ccc(Cl)cc3)c(C)o2)cc1 | – | inactive: -3.41% |
| Cc1ccc(CCNC(=O)CCCn2c(=O)c3ccccc3n(Cc3ccccc3C#N)c2=O)cc1 | – | inactive: 19.6% |
| N#Cc1c(NCCCO)nc(-c2ccco2)c2c1CCCC2 | – | inactive: 1.2% |
| CCCCCC(=O)N1CC2(C)CN(C(=O)CCCCC)CC(C)(C1)C2=O | inconclusive [inhibitor, single point] | – |
| COC(=O)CSc1ccc(-c2nc3ccc(C)cc3[nH]2)cn1 | – | inactive: -4.31% |
| O=C(NCC(c1ccco1)N1CCOCC1)c1cccc([N+](=O)[O-])c1 (stereo not given) | inconclusive [inhibitor, full curve, poor fit] | – |
| CCOC(=O)c1ccc(NC(=O)Nc2cccc(C)n2)cc1 | inconclusive [inhibitor, full curve] | – |
| COc1cc2c(cc1OC)C(C)N(C(=O)c1ccc(Cl)c(S(=O)(=O)N3CCCCC3)c1)CC2 (stereo not given) | inconclusive [inhibitor, partial curve] | – |
| CN(C)C(CNC(=O)c1ccco1)c1cccs1 (stereo not given) | inconclusive [inhibitor, full curve, poor fit] | – |
| [N-]=[N+]=NC1c2ccccc2C(=O)N1Cc1ccccc1 (stereo not given) | inconclusive [inhibitor, partial curve, poor fit] | – |
| COc1ccc(C(=O)NCC(=O)n2nc(C)cc2C)cc1OC | inconclusive [inhibitor, full curve] | – |
| Cc1c(C(=O)NCCCN2CCCCC2)oc2ccc3c(c12)C(O)CC1(CCCCC1)O3 (stereo not given) | – | inactive: 1.44% |
| CCCCOC(=O)C1=C(C)NC2(O)c3ccccc3C(=O)C12O (stereo not given) | inconclusive [inhibitor, full curve] | – |
